# Results from the supplement of paper PMC8728848.
# Some of the results follow.
# B1: FimD (Bordetella pertussis) (protein)
# chain: MPARVISFCGAALAVWAGLAVQPAMAVDPPVDCGRALGLHFWSSASLISDQTPDGTLIGKPVVGRSLLSKSCKVPDDIKEDLSDNHDGEPVDIVLELGSNYKIRPQSYGHPGIVVDLPFGSTEETGIAIYIDFGSSPMQKVGERQWLYPQKGEVLFDVLTINGDNAEVRYQAIKVGPLKRPRKLVLSQFPNLFTYKWVFMRGTSQERVLAQGTIDTDVATSTIDLKTCRYTSQTVSLPIIQRSALTGVGTTLGMTDFQMPFWCYGWPKVSVYMSATKTQTGVDGVALPATGQAAGMASGVGVQLINGKTQQPVKLGLQGKIALPEAQQTESATFSLPMKAQYYQTSTSTSAGKLSVTYAVTLNYD
# How the values were obtained:
# Experiment in all cases: glycan array binding signal (z-score within array); higher = stronger binding
# Conditions in all cases: glycan notation: IUPAC condensed, linker removed
# [1] = molecular target: Gal(b1-4)GlcNAc(b1-3)Gal(b1-4)GlcNAc(b1-3)Gal(b1-4)GlcNAc(b1-2)Man(a1-3)[Gal(b1-4)GlcNAc(b1-3)Gal(b1-4)GlcNAc(b1-3)Gal(b1-4)GlcNAc(b1-2)Man(a1-6)]Man(b1-4)GlcNAc(b1-4)GlcNAc
# Outline: (§1)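 Columns mapping to the same glycan were averaged after glycan names were converted to IUPAC-condensed notation. The data come from 3228 arrays in the Consortium for Functional Glycomics database, limited to those with an available protein sequence. Binding is reported as a within-array Z-score averaged across arrays of one protein sequence and across linkers.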
# [2] = molecular target: Gal(b1-4)GlcNAc(b1-3)Gal(b1-4)GlcNAc(b1-3)Gal(b1-4)GlcNAc(b1-2)Man(a1-3)[Gal(b1-4)GlcNAc(b1-3)Gal(b1-4)GlcNAc(b1-3)Gal(b1-4)GlcNAc(b1-2)Man(a1-6)]Man(b1-4)GlcNAc(b1-4)[Fuc(a1-6)]GlcNAc
# Outline: as §1
# [3] = molecular target: Gal(b1-4)GlcNAc(b1-3)Gal(b1-4)GlcNAc(b1-3)Gal(b1-4)GlcNAc(b1-2)[Gal(b1-4)GlcNAc(b1-3)Gal(b1-4)GlcNAc(b1-3)Gal(b1-4)GlcNAc(b1-6)]Man(a1-6)[Gal(b1-4)GlcNAc(b1-3)Gal(b1-4)GlcNAc(b1-3)Gal(b1-4)GlcNAc(b1-2)Man(a1-3)]Man(b1-4)GlcNAc(b1-4)[Fuc(a1-6)]GlcNAc
# Outline: as §1
# [4] = molecular target: Gal(b1-4)GlcNAc(b1-3)Gal(b1-4)GlcNAc(b1-3)Gal(b1-4)GlcNAc(b1-3)Gal(b1-4)GlcNAc(b1-2)Man(a1-3)[Gal(b1-4)GlcNAc(b1-3)Gal(b1-4)GlcNAc(b1-3)Gal(b1-4)GlcNAc(b1-3)Gal(b1-4)GlcNAc(b1-2)Man(a1-6)]Man(b1-4)GlcNAc(b1-4)GlcNAc
# Outline: as §1
# [5] = molecular target: Gal(b1-4)GlcNAc(b1-3)Gal(b1-4)GlcNAc(b1-3)Gal(b1-4)GlcNAc(b1-3)Gal(b1-4)GlcNAc(b1-2)Man(a1-3)[Gal(b1-4)GlcNAc(b1-3)Gal(b1-4)GlcNAc(b1-3)Gal(b1-4)GlcNAc(b1-3)Gal(b1-4)GlcNAc(b1-2)Man(a1-6)]Man(b1-4)GlcNAc(b1-4)[Fuc(a1-6)]GlcNAc
# Outline: as §1
# [6] = molecular target: Gal(b1-4)GlcNAc(b1-3)Gal(b1-4)GlcNAc(b1-3)Gal(b1-4)GlcNAc(b1-3)Gal(b1-4)GlcNAc(b1-2)[Gal(b1-4)GlcNAc(b1-3)Gal(b1-4)GlcNAc(b1-3)Gal(b1-4)GlcNAc(b1-3)Gal(b1-4)GlcNAc(b1-6)]Man(a1-6)[Gal(b1-4)GlcNAc(b1-3)Gal(b1-4)GlcNAc(b1-3)Gal(b1-4)GlcNAc(b1-3)Gal(b1-4)GlcNAc(b1-2)Man(a1-3)]Man(b1-4)GlcNAc(b1-4)[Fuc(a1-6)]GlcNAc
# Outline: as §1
# [7] = molecular target: Gal(b1-4)GlcNAc(b1-3)Gal(b1-4)GlcNAc(b1-3)Gal(b1-4)GlcNAc(b1-3)Gal(b1-4)GlcNAc(b1-3)Gal(b1-4)GlcNAc(b1-2)Man(a1-3)[Gal(b1-4)GlcNAc(b1-3)Gal(b1-4)GlcNAc(b1-3)Gal(b1-4)GlcNAc(b1-3)Gal(b1-4)GlcNAc(b1-3)Gal(b1-4)GlcNAc(b1-2)Man(a1-6)]Man(b1-4)GlcNAc(b1-4)GlcNAc
# Outline: as §1
# [8] = molecular target: Gal(b1-4)GlcNAc(b1-3)Gal(b1-4)GlcNAc(b1-3)Gal(b1-4)GlcNAc(b1-3)Gal(b1-4)GlcNAc(b1-3)Gal(b1-4)GlcNAc(b1-2)Man(a1-3)[Gal(b1-4)GlcNAc(b1-3)Gal(b1-4)GlcNAc(b1-3)Gal(b1-4)GlcNAc(b1-3)Gal(b1-4)GlcNAc(b1-3)Gal(b1-4)GlcNAc(b1-2)Man(a1-6)]Man(b1-4)GlcNAc(b1-4)[Fuc(a1-6)]GlcNAc
# Outline: as §1
# [9] = molecular target: Gal(b1-4)GlcNAc(b1-3)Gal(b1-4)GlcNAc(b1-3)Gal(b1-4)GlcNAc(b1-3)Gal(b1-4)GlcNAc(b1-3)Gal(b1-4)GlcNAc(b1-2)[Gal(b1-4)GlcNAc(b1-3)Gal(b1-4)GlcNAc(b1-3)Gal(b1-4)GlcNAc(b1-3)Gal(b1-4)GlcNAc(b1-3)Gal(b1-4)GlcNAc(b1-6)]Man(a1-6)[Gal(b1-4)GlcNAc(b1-3)Gal(b1-4)GlcNAc(b1-3)Gal(b1-4)GlcNAc(b1-3)Gal(b1-4)GlcNAc(b1-3)Gal(b1-4)GlcNAc(b1-2)Man(a1-3)]Man(b1-4)GlcNAc(b1-4)[Fuc(a1-6)]GlcNAc
# Outline: as §1
# [10] = molecular target: Gal(b1-4)GlcNAc(b1-3)Gal(b1-4)GlcNAc(b1-3)Gal(b1-4)GlcNAc(b1-3)Gal(b1-4)GlcNAc(b1-3)Gal(b1-4)GlcNAc(b1-3)Gal(b1-4)GlcNAc(b1-2)Man(a1-3)[Gal(b1-4)GlcNAc(b1-3)Gal(b1-4)GlcNAc(b1-3)Gal(b1-4)GlcNAc(b1-3)Gal(b1-4)GlcNAc(b1-3)Gal(b1-4)GlcNAc(b1-3)Gal(b1-4)GlcNAc(b1-2)Man(a1-6)]Man(b1-4)GlcNAc(b1-4)GlcNAc
# Outline: as §1
# [11] = molecular target: Gal(b1-4)GlcNAc(b1-3)Gal(b1-4)GlcNAc(b1-3)GalNAc
# Outline: as §1
# [12] = molecular target: Gal(b1-4)GlcNAc(b1-3)Gal(b1-4)GlcNAc(b1-3)[Gal(b1-4)GlcNAc(b1-3)Gal(b1-4)GlcNAc(b1-6)]GalNAc
# Outline: as §1
# [13] = molecular target: Gal(b1-4)GlcNAc(b1-3)Gal(b1-4)GlcNAc(b1-6)[Gal(b1-3)]GalNAc
# Outline: as §1
# [14] = molecular target: Gal(b1-4)GlcNAc(b1-3)Gal(b1-4)[Fuc(a1-3)]GlcNAc(b1-3)Gal(b1-4)[Fuc(a1-3)]GlcNAc
# Outline: as §1
# [15] = molecular target: Gal(b1-4)GlcNAc(b1-3)GalNAc
# Outline: as §1
# [16] = molecular target: Gal(b1-4)GlcNAc(b1-3)[Fuc(a1-3)GlcNAc(b1-6)]Gal(b1-4)Glc
# Outline: as §1
# [17] = molecular target: Gal(b1-4)GlcNAc(b1-3)[Gal(b1-4)GlcNAc(b1-6)]Gal(b1-4)GlcNAc
# Outline: as §1
# [18] = molecular target: Gal(b1-4)GlcNAc(b1-3)[GlcNAc(b1-6)]Gal(b1-4)GlcNAc
# Outline: as §1
# [19] = molecular target: Gal(b1-4)GlcNAc(b1-6)Gal(b1-4)GlcNAc
# Outline: as §1
binder,measurement,setting,value
B1,glycan array binding signal (z-score),[1],1.08
same,glycan array binding signal (z-score),[2],-0.033
same,glycan array binding signal (z-score),[3],1.14
same,glycan array binding signal (z-score),[4],0.51
same,glycan array binding signal (z-score),[5],0.462
same,glycan array binding signal (z-score),[6],0.871
same,glycan array binding signal (z-score),[7],0.072
same,glycan array binding signal (z-score),[8],0.144
same,glycan array binding signal (z-score),[9],0.919
same,glycan array binding signal (z-score),[10],0.71
same,glycan array binding signal (z-score),[11],0.01
same,glycan array binding signal (z-score),[12],0.562
same,glycan array binding signal (z-score),[13],0.312
same,glycan array binding signal (z-score),[14],-0.263
same,glycan array binding signal (z-score),[15],-0.367
same,glycan array binding signal (z-score),[16],0
same,glycan array binding signal (z-score),[17],-0.436
same,glycan array binding signal (z-score),[18],0.015
same,glycan array binding signal (z-score),[19],-0.084
